The record followed here is publication PMC12136788.

To fix the notation:
B1: chr10:37949572:37952126:-|three_prime_utr|ENSG00000175395|control|control|control (ssRNA)
RNA: GGGAGUUCUACAGUCCGACGAUCUAAUCCUUCAAAACAAUCAGAUAAUUCACACAAGAGGUACACCUUAUGAAUCGCAUCAAUAGAGGGAAAUUUUCAGCUACAAUCUUUGCUCUCUCUGUGUAUCAGCAAAUACAUAGAGAGCAACAGAGGAUUGAGCAUCA
B2: chr4:100187679:100188167:-|CDS|ENSG00000145358|control|control|control (ssRNA)
RNA: GGGAGUUCUACAGUCCGACGAUCACACUUGUGUUUAAGCAGGAGAACUGCUCAUGGACUAGCUUCAGGGACUUUUUCUUUAGUAGAGGUCGCUUCUCCUCUGGUUUCAGGAGAACUCUGAUCCUCAGCUCAGGAUUUCGACUUCAACAGAGGAUUGAGCAUCA
B3: chr15:59031169:59031386:+|CDS|ENSG00000157450|unk|FALSE|unique (ssRNA)
RNA: GGGAGUUCUACAGUCCGACGAUCACACCAAGUGAUGAAGAUAAUGAUUCCUCUUUUAGUGAUUGUCUUUCUUCUCCUUCAUCUAGUCUGCAUUUUGGAGAUUCUGAUACUGUGACUUCAGAUGAGGAUAAAGAAGUCUCUGUACAACAGAGGAUUGAGCAUCA
B4: chr1:215620365:215620495:+|CDS|ENSG00000136636|unk|total|mutant (ssRNA)
RNA: GGGAGUUCUACAGUCCGACGAUCGGUUUUUCAGAAUCCAAGAAAAGGUCAUCAGAAGAUGAAAAUGAAAAUAAAACCGAGUUCCGGAAGAAAGGAGGAUUUGAAGGGGGAGGAUUCCUUGGAAGAAAGAAAGUUCCCUAUCUGCAACAGAGGAUUGAGCAUCA
B5: chr12:14497711:14497812:+|CDS|ENSG00000171681|unk|total|mutant (ssRNA)
RNA: GGGAGUUCUACAGUCCGACGAUCACAGCGUCUGCCCCCAGAAGCUGCCAGCACAUCUCUGCCUCAGAAGCCACACUUGAAGUCCGCACGCGUUCAGAGUCAAAAUGGCACCGUACUGUCAUGGAGUGUCCUGGAGGUGGAUCGCAACAGAGGAUUGAGCAUCA
B6: chr13:113500007:113500108:+|CDS|ENSG00000150403|unk|FALSE|unique (ssRNA)
RNA: GGGAGUUCUACAGUCCGACGAUCGAAGAGGCCAAUUCUAAGCAAAAUAUAACAAAACGAGAAGUGGAGGAUGACUUGGGUCUUAGCAUGCUGAUUGACUCCCAGAACAACCAGUAUAUUUUGACCAAGCCCAGAGAUUCAACCCAACAGAGGAUUGAGCAUCA
B7: chr7:13894654:13894755:-|3pUTR|ENSG00000006468|msi1|FALSE|unique (ssRNA)
RNA: GGGAGUUCUACAGUCCGACGAUCUAUUCUCUUUCAUGCUGAAUUUACUAUGACCAUUUAUAAGCAGUGCAGUUAACUACAGAUAGCAUUUCAGGACAAAAUAGAUGACUCAAACCAUUUAUUGCUUAAAAAAUAGCUUACGCCCAACAGAGGAUUGAGCAUCA
B8: chr6:122458524:122458701:-|CDS|ENSG00000111897|unk|FALSE|unique (ssRNA)
RNA: GGGAGUUCUACAGUCCGACGAUCGGAAGUGCCCCGUGUUUGCUAUGCCGAUGCUGUCCUAGUGGAAACAACUCCACUGUAACUAGAUUGAUCUAUGCACUUUUCUUGCUUGUUGGAGUAUGUGUAGCUUGUGUAAUGUUGAUACAACAGAGGAUUGAGCAUCA
B9: chr10:63621301:63621396:+|3pUTR|ENSG00000165476|msi1_unk|total|mutant (ssRNA)
RNA: GGGAGUUCUACAGUCCGACGAUCUGUAAGAUAAUAAAGCCGGUUUUAUAUAUUCUUUAAAUUUUUACUUAUAUAAUACUUUCCCGUUUUUCCACCAUCAGCUGAAAGUUUUUGAAACAAAUAUUUGAAAACCAGGUAUCCACACAACAGAGGAUUGAGCAUCA
B10: ENSG00000124766:be:win_851|CDS|ENSG00000124766|bound_else_gene|NA|bound_elsewhere_windowed (ssRNA)
RNA: GGGAGUUCUACAGUCCGACGAUCCGGGCAAGCACCUGGCGGAGAAGAAGGUGAAGCGCGUCUACCUGUUCGGCGGCCUGGGCACGUCGUCGUCGCCCGUGGGCGGCGUGGGCGCGGGAGCCGACCCCAGCGACCCCCUGGGCCCAACAGAGGAUUGAGCAUCA
B11: chrX:48700291:48700392:+|CDS|ENSG00000101945|unk|FALSE|unique (ssRNA)
RNA: GGGAGUUCUACAGUCCGACGAUCGCUCCGUCGCUGGGAGCAGGAGCUCAAUGCCAAGCGCAGCCAUCUGGGACGCAUCACUGUAGAGAAUGAGGUGGACCUGGACGGCCCUCCGCGGGCCUUCGUGUACAUCAAUGAGUACCGCAACAGAGGAUUGAGCAUCA
B12: chr1:169376695:169376796:+|CDS|ENSG00000117475|unk|total|mutant (ssRNA)
RNA: GGGAGUUCUACAGUCCGACGAUCUCUUCAGCCCGGGAAAAUGCUCACUGAAAAAGCAAUGGAAGUUAAAGCUGUAAGAAUAUCCGUUCCCAAAGCUGCUAUAACUCAUGAUAUCCCCAACAAAAAUACAAAGGUUAAGUCUCUCAACAGAGGAUUGAGCAUCA
B13: ENSG00000150347:stop:overlap|stop_codon|ENSG00000150347|stop_codon|NA|stop_codon (ssRNA)
RNA: GGGAGUUCUACAGUCCGACGAUCAUCCUCAAGCUGCCUUUCCAUCUUCCCAGCUGUCAUCCGUGCACCCCAGUACAAAACUGUAGGCUCAGCUCUGCCCAGCAGUCCAAAGCGGCAUGGCCAACAGAGCUUCACUCCUUACCCCAACAGAGGAUUGAGCAUCA
B14: chr5:178210945:178211047:+|3pUTR|ENSG00000197451|unk|total|mutant (ssRNA)
RNA: GGGAGUUCUACAGUCCGACGAUCCUGCUGCCGCUCUGCAGCCUGGACCUGUGGACCCUGGUUGUAAAGAGUAAAUUGUAUCUCCGGAAACCAGUGUCACCUUUUUUUCACCUUUUAAUUUUAUAUUAUUUGCGUCAUACAUUUCAACAGAGGAUUGAGCAUCA
B15: chr3:170996346:170998103:-|three_prime_utr|ENSG00000163581|control|control|control (ssRNA)
RNA: GGGAGUUCUACAGUCCGACGAUCGGAAAUUGCUGCAGAAUUCCAAAAGAAGAGUGGCUCAGCCCACAGGCCAAAAGCUGCUGUAGAAAUGAAAUUCCUAGGAGCUACAGAGACUGUGUAAAAAAAAAACCCUGCUUUUUGACACAACAGAGGAUUGAGCAUCA
B16: chr1:28768968:28769069:+|3pUTR|ENSG00000198492|msi1|total|mutant (ssRNA)
RNA: GGGAGUUCUACAGUCCGACGAUCGACUGCAGCAACGGUUGCAUCUGCAUAUCCUAAGAGGAAAAAAUGACCUUCAAGAGAAUCCGGACUUUUUUCUUAAUUUCACUGACUUCAGAGACGAUUGCAGACUUGCAGUUUAAGUAUCAACAGAGGAUUGAGCAUCA
B17: chr1:71064632:71064733:-|3pUTR|ENSG00000132485|msi1|total|mutant (ssRNA)
RNA: GGGAGUUCUACAGUCCGACGAUCGCUAAGACAGGAUUACCCCGGCUUGCCUGAACUUUGGGCAUGGAAGAAAGACUGGAAACCCGUUGGAAACAACAUACUUAUGGAAAAGAAAGUCAGCCUUUUUAUGCUGUUAACAGAUGUCAACAGAGGAUUGAGCAUCA
B18: chr4:186619803:186619904:-|CDS|ENSG00000083857|msi1|total|mutant (ssRNA)
RNA: GGGAGUUCUACAGUCCGACGAUCAGACGGAGACCCUUUCAGCCAGUUCACUAUUAACUUCAAUACUGGAGUUAUCAAUGUCACCGCUCCUCUGGACUUUGAGGCCCACCCGGCAUAUAAGCUGAGCAUACGCGCAACUGACUCCAACAGAGGAUUGAGCAUCA
B19: ENSG00000107863:be:win_2751|CDS|ENSG00000107863|bound_else_gene|NA|bound_elsewhere_windowed (ssRNA)
RNA: GGGAGUUCUACAGUCCGACGAUCCUCUGGGUCCAGAAAAGAUUCUUCCUCAGAGGUCUUCAGUGAUGCUGCCAAGGAAGGGUGGCUUCAUUUCCGACCCCUUGUCACCGAUAAGGGCAAGCGAGUUGGUGGAAGUAUUCGGCCCAACAGAGGAUUGAGCAUCA
B20: chr7:101138022:101138407:+|3pUTR|ENSG00000106366|msi1|total|mutant (ssRNA)
RNA: GGGAGUUCUACAGUCCGACGAUCCUCUUGGUGGGGAGGGGUGUACCUAAAUAUUUAUCAUAUCCUUGCCCUUGAGUGCUUGUCCGAGAGAAAGAGAACUACUAAGGAAAAUAAUAUUAUUUAAACUCGCUCCCCGUGUUUCUUCAACAGAGGAUUGAGCAUCA
B21: ENSG00000185219:stop:overlap|stop_codon|ENSG00000185219|stop_codon|NA|stop_codon (ssRNA)
RNA: GGGAGUUCUACAGUCCGACGAUCGAAAGACCUUCAGGUGGUCUUCGAACCUGGCUCGGCAUAUGAAAAACCAUAUUAGAGAUUAGCCUGGGACCUGACAGUGACAGUGGGGGUGGGUUCUCAGUCCCCUGCUAGAGAACCCUUCAACAGAGGAUUGAGCAUCA
B22: chr14:53043751:53043854:-|3pUTR|ENSG00000100523|unk|total|mutant (ssRNA)
RNA: GGGAGUUCUACAGUCCGACGAUCACUCCGAUUAAAUCUUGCUUUAUUUUUACUUUAAAAUCCGUCUUGCUAAGGCCUUAUGUCCGUUCAUACUUUCUUUUCAACAGUAAUCUUGUUUAUAAUCCAGUGUUUCUGUGUUUCCGGCAACAGAGGAUUGAGCAUCA

Some of the results follow.

The target in the assay is T1, UNK ZnF1-6 (called full-length) (human, UniProt Q9C0B0 30-357).
T1 sequence: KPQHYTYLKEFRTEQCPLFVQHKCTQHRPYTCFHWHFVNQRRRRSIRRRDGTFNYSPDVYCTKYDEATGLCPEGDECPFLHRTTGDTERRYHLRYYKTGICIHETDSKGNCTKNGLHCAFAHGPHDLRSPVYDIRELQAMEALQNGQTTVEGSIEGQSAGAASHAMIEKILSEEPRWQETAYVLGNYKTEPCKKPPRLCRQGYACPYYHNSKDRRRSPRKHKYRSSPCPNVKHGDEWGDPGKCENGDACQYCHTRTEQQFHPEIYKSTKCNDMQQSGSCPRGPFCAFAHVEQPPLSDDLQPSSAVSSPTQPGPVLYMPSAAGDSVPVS
Put plainly: nsRBNS (natural sequence RNA bind-n-seq); RBNS binding buffer (assumed for nsRBNS): 25 mM Tris pH 7.5, 150 mM KCl, 3 mM MgCl2, 0.01% Triton X-100, 500 ug/ml BSA, 20 U/ml SUPERase-In, 4 C; UNK is unkempt and MSI1 is Musashi-1; names of the RNAs are library labels; protein concentration not given here; high values mean tight binding.
For the molecule B1, the binding signal came out at 0.375 enrichment R.

The molecule B2 gave a binding signal of 0.554 enrichment R. The result for B3 reads 0.51 enrichment R; that for B4, 0.698 enrichment R; that for B5, 0.64 enrichment R. As for B6, the figure is 0.624 enrichment R. As for B7, the figure is 0.593 enrichment R. In turn, B8 registered a binding signal of 0.713 enrichment R.

For B9, the binding signal was determined as 1.56 enrichment R. As for B10, the figure is 0.765 enrichment R; as for B11, 0.617 enrichment R; as for B12, 0.322 enrichment R.

With B13, the binding signal was found to be 0.909 enrichment R. As for B14, the figure is 0.66 enrichment R; as for B15, 0.91 enrichment R. The result for B16 reads 0.365 enrichment R; that for B17, 0.548 enrichment R; that for B18, 0.539 enrichment R. As for B19, the figure is 0.437 enrichment R; as for B20, 1.32 enrichment R; as for B21, 0.79 enrichment R.

With B22, the binding signal was determined as 0.954 enrichment R.
